Several values for one entry are separate records, joined by “and”; a condition that tells them apart may be missing. Equal values may be shown once. The campaign covered roughly 350,000 compounds. About 9,900 (2.8%) were called active. The inconclusive results got no clear call from the source; some entries with a clear call stand among them for comparison. The call rests on the fitted dose curve; in most records, active means well fitted activation curve with a large enough effect; inconclusive means small, poorly fitted or top-dose-only effect; inactive means no such curve, though single readings can be large or run the other way. Potencies beside an inconclusive call are fits to weak or partial responses and may not hold up.
test: A quantitative high throughput screen for small molecules that induce DNA re-replication in MCF 10a normal breast cells.; further: nearly all actives have a fitted effect of over 50% in size; settings: MCF 10A DNA re-replication, Hoechst nuclear intensity, 48 h; series mostly up to 46.1 µM
Potency means the concentration at half of the fitted maximal effect; tags describe the fitted curve by direction and shape.

Row | Compound | Potency
1 | Cc1cc(NC2CCCC2)n2ncc(-c3ccccc3)c2n1 | inconclusive: 23.1 µM [activator, single point]
2 | CCc1c(C)nc2ncnn2c1N1CCC(C(=O)Nc2ccccc2)CC1 | inactive
3 | Cc1oc(-c2ccc(Cl)cc2)nc1CSCC(=O)NCCCN1CCOCC1 | inconclusive: 18.4 µM [activator, single point]
4 | CC[C@]1([C@H]2O[C@@H]([C@@H]3O[C@](O)(CO)[C@@H](C)C[C@H]3C)C[C@H]2C)CC[C@@H]([C@]2(C)CC[C@@]3(C[C@@H](O)[C@@H](C)[C@@H]([C@H](C)[C@H](OC)[C@H](C)C(=O)O)O3)O2)O1 | inconclusive: 1.68 µM [activator, full curve]
5 | Cc1ccc(NC(=O)CNc2ccc(OC(C)C)cc2)cc1 | inconclusive: 4.11 µM [activator, full curve, poor fit]
6 | Cc1nnc(SCC(=O)Nc2ccccc2)c2ccccc12 | inactive
7 | COc1ccc2c(c1)sc1nc(=O)ccn12 | inconclusive: 5.17 µM [activator, single point]
8 | Fc1ccc(/C=N/Nc2nc(-c3cccnc3)nc3ccccc23)cc1 | inconclusive: 20.6 µM [activator, single point]
9 | COC(=O)COc1ccc(C2NC(=O)NC(c3ccccc3)=C2C(C)=O)cc1Br (stereo not drawn) | inactive
10 | O=C(Cc1ccccc1)N1O[C@H]2C=C[C@@H]1CC2 | inconclusive: 6.51 µM [activator, single point]
11 | O=C(c1ccccc1)C(O)c1ccccc1 (stereo not drawn) | inconclusive: 0.0046 µM [activator, full curve, poor fit]
12 | CN1CCN(Cc2nnc(-c3ccccc3)o2)CC1 | inactive
13 | CCN(CC)S(=O)(=O)c1ccc(N2CCOCC2)c(NC(=O)c2cc(-c3ccccn3)nc3ccccc23)c1 | inconclusive: 6.51 µM [activator, partial curve]
14 | CC(C(=O)NCc1ccccc1Cl)n1cc([N+](=O)[O-])cn1 (stereo not drawn) | inactive
15 | COc1ccccc1NC(=O)/C(C#N)=C/C=C/c1ccco1 | active: 8.2 µM
16 | CCOC(=O)N1CCN(S(=O)(=O)c2ccc(F)c(C(=O)Nc3ccc(C)c(Cl)c3)c2)CC1 | inactive and inconclusive: 25.9 µM [activator, partial curve, poor fit]
17 | COc1ccc(OC)c(NC(=O)CC2SC(=Nc3ccc(F)cc3)N(CCC3=CCCCC3)C2=O)c1 (stereo not drawn) | inconclusive: 8.2 µM [activator, partial curve, poor fit]
18 | CCOC(=O)C1=C(C)N(C[C@@H]2CC[C@@H](Cc3ccc4cc(OC)ccc4c3)O2)C(=O)NC1c1ccc(OC)cc1 (stereo partly drawn) | active: 4.11 µM
19 | CCOc1ccc(-n2c(=O)cc(N3CCN(c4ccc(F)cc4)CC3)[nH]c2=O)cc1 | inconclusive: 5.17 µM [activator, full curve, poor fit]
20 | Cc1ccc(S(=O)(=O)Nc2c(C)nn(C)c2C)cc1 | inactive
21 | COc1cc(C(=O)NNC(=O)c2cc(-c3ccccc3)n[nH]2)cc(OC)c1C | inactive
22 | Cc1ccc(NC(=S)NC(NC(=O)c2ccccc2)C(Cl)(Cl)Cl)c(C)c1 (stereo not drawn) | inconclusive: 29.1 µM [activator, single point]

Row | Compound | Potency
23 | COc1cccc(COC(=O)c2ccc(S(=O)(=O)N3CCC(C)CC3)cc2)c1OC | inconclusive: 29.1 µM [activator, single point]
24 | CC(C)N(Cc1ccccc1)C(=O)C1CCCN(c2ncnc3c2nc2n3CCCCC2)C1 (stereo not drawn) | inactive
25 | O=C(/C=C/c1ccc(S(=O)(=O)N2CCOCC2)cc1)NCc1ccccc1Cl | inconclusive: 23.1 µM [activator, partial curve, poor fit]
26 | CCOC(=O)c1cnc2sccn2c1=O | inconclusive: 29.1 µM [activator, single point]
27 | Cc1ccc(-c2nn(-c3ccccc3)cc2C2SCC(=O)N2Cc2ccccc2)o1 (stereo not drawn) | inconclusive: 29.1 µM [activator, single point]
28 | COC(=O)c1c(NC(=O)CC2SC(N)=NC2=O)sc2c1CCC(C)C2 (stereo not drawn) | inconclusive: 16.4 µM [activator, single point]
29 | CCOC(=O)N1CCN(S(=O)(=O)c2ccc(C(=O)N(CCCN(C)C)c3nc4ccc(OC)cc4s3)cc2)CC1 | inactive
30 | O=C(C(=O)N(Cc1ccccc1)Cc1ccccc1)c1c(-c2ccccc2)[nH]c2ccccc12 | inactive
31 | COc1cccc2cc(C(=O)c3ccc([N+](=O)[O-])cc3)oc12 | inconclusive: 23.1 µM [activator, single point]
32 | CCOc1ccc(N(C(=O)CNC(=O)c2ccco2)C(C(=O)NCC2CCCO2)c2ccccc2)cc1 (stereo not drawn) | inactive
33 | COc1ccccc1N1CCN(S(=O)(=O)CCNC(=O)CC2CCCCC2)CC1 | inactive
34 | O=C(Nc1ccn(CC(=O)N2CCN(c3ccccn3)CC2)c(=O)n1)OCc1ccccc1 | inactive
35 | O=C(COC(=O)CCCSc1nc2ccccc2[nH]1)Nc1ccc(Oc2ccccc2)cc1 | inconclusive: 23.1 µM [activator, partial curve, poor fit]
36 | CCN1C(=S)SC(=O)C1=C1C=C(C)N(Cc2ccco2)C(C)=C1 | inactive
37 | CC1Cc2cc(S(=O)(=O)N3CCC(C(=O)N(C)Cc4ccccc4)CC3)ccc2N1C(=O)C1CC1 (stereo not drawn) | inactive
38 | O=C(Nc1ccc2c(c1)OCO2)C(c1ccc(Cl)cc1)N1CCN(C(=O)c2ccco2)CC1 (stereo not drawn) | inconclusive: 6.31 µM [activator, full curve, poor fit]
39 | O=C1c2sc3nc4n(c(=O)c3c2CCC1Br)CCCCC4 (stereo not drawn) | inactive
40 | O=C1CC(Sc2nnc(-c3ccccc3)o2)C(=O)N1c1ccccc1 (stereo not drawn) | active: 5.8 µM
41 | CC(C)CC(C(=O)NC1CCCC1)N(Cc1ccc2c(c1)OCO2)C(=O)c1snc(C(N)=O)c1N (stereo not drawn) | inconclusive: 29.1 µM [activator, single point]
42 | CCOc1cc(/C=C2/C(=O)ON=C2C)ccc1OCc1ccccc1 | inconclusive: 20.6 µM [activator, single point]
43 | COc1ccc(Cl)cc1NC(=O)CCN1CCN(Cc2ccccc2)CC1 | inconclusive: 6.51 µM [activator, full curve]

— PubChem BioAssay AID624296 (National Center for Advancing Translational Sciences (NCATS), 2012)
